# Experimental data from the supplement of paper PMC7826260.
# This is one part of the list. One pool of 16,384 single-stranded DNAs met each Rep nickase domain in vitro for 1 h at 37 °C with 3 µM enzyme; only the middle of the 90-letter strands is printed. Numbers give uncut DNA relative to the enzyme-free pool, as log2; strong cutting gives strongly negative numbers. There is no active / inactive call. The scaling is to total reads; uncut strands gain when others are lost, and binding without cutting may add a little.
# Tests used:
# Experiment in all cases: uncleaved DNA left, log2 of reads against the no-enzyme library (log2 ratio); higher = less cleavage (more negative = more Rep cleavage of the k-mer); sequences stand for … in CTCGTCCG…ACCGGAGA
# [1] = tested on: T1, Rep nickase domain of Muscovy duck circovirus
# T1 sequence (residues 1-111 of Rep, tag left off): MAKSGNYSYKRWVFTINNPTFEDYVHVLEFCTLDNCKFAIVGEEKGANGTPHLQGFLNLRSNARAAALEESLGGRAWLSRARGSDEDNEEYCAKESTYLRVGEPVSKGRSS
# Description: (§1)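 A pool of 90-nt single-stranded DNAs with seven random bases just before the constant AC of the nick site (name = the seven bases) was cut by 3 µM recombinant His6-SUMO-tagged Rep nickase domain (300 nM DNA, 50 mM HEPES pH 8.0, 50 mM NaCl, 1 mM MnCl2, 1 h, 37 °C, three replicates). Uncut DNA was amplified and sequenced.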
# [2] = tested on: T2, Rep nickase domain of banana bunchy top virus
# T2 sequence (residues 1-94 of Rep, tag left off): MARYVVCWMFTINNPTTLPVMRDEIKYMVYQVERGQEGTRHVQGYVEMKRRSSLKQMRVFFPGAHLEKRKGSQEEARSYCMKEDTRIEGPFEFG
# Description: as §1
# [3] = tested on: T3, Rep nickase domain of cabbage leaf curl virus
# T3 sequence (residues 1-116 of Rep, tag left off): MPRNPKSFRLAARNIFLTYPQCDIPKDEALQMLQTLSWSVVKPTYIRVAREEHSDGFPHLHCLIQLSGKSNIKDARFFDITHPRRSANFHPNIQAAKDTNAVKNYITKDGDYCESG
# Description: as §1
# [4] = tested on: T4, Rep nickase domain of chickpea chlorotic dwarf virus
# T4 sequence (residues 1-124 of Rep, tag left off): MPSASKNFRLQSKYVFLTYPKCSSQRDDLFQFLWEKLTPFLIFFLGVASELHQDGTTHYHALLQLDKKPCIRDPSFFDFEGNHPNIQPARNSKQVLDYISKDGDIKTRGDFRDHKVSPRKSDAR
# Description: as §1
# [5] = tested on: T5, Rep nickase domain of faba bean necrotic yellows virus
# T5 sequence (residues 1-98 of Rep, tag left off): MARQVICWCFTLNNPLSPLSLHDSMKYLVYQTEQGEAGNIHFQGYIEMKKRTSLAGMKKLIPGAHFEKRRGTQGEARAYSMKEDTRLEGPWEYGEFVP
# Description: as §1
# [6] = tested on: T6, Rep nickase domain of maize striate mosaic virus
# T6 sequence (residues 1-117 of Rep, tag left off): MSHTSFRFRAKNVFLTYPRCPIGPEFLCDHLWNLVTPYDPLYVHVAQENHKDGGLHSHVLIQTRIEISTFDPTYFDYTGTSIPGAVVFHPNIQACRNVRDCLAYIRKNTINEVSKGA
# Description: as §1
# [7] = tested on: T7, Rep nickase domain of porcine circovirus 2
# T7 sequence (residues 2-116 of Rep, tag left off): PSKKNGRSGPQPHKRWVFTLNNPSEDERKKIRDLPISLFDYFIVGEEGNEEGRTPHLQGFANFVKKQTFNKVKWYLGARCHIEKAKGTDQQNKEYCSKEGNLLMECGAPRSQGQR
# Description: as §1
# [8] = tested on: T8, Rep nickase domain of tomato golden mosaic virus
# T8 sequence (residues 1-124 of Rep, tag left off): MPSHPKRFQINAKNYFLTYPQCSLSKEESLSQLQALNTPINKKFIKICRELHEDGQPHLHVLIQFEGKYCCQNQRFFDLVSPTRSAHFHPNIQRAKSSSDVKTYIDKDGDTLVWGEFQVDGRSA
# Description: as §1
# [9] = tested on: T9, Rep nickase domain of tomato yellow leaf curl virus
# T9 sequence (residues 1-136 of Rep, tag left off): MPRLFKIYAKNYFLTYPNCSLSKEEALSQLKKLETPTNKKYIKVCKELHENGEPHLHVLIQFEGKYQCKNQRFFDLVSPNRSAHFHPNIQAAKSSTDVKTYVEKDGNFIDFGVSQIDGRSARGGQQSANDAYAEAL
# Description: as §1
# [10] = tested on: T10, Rep nickase domain of wheat dwarf virus
# T10 sequence (residues 1-137 of Rep, tag left off): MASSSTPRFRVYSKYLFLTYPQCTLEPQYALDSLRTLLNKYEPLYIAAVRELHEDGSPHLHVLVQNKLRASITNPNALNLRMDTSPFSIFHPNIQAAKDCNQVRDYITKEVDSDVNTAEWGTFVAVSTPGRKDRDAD
# Description: as §1
Sequence,uncleaved DNA left (log2) [1],uncleaved DNA left (log2) [2],uncleaved DNA left (log2) [3],uncleaved DNA left (log2) [4],uncleaved DNA left (log2) [5],uncleaved DNA left (log2) [6],uncleaved DNA left (log2) [7],uncleaved DNA left (log2) [8],uncleaved DNA left (log2) [9],uncleaved DNA left (log2) [10]
ATTTTAG,0.00464,0.0309,-0.87,-0.457,0.0142,-1.39,0.161,0.0597,-0.0818,-0.116
CAGTCAA,-0.116,-0.0488,-0.0559,-0.399,-0.127,-0.491,-2.61,0.00327,0.0544,0.0359
TGAGGTG,0.00671,-0.0909,-0.244,-0.205,-0.139,-0.446,0.087,-0.0368,-0.195,-0.168
GTTAAAG,-0.0705,-0.0728,-0.211,-0.185,-0.0251,-0.816,0.0234,0.0181,0.0119,-0.0329
AAGGAAT,0.16,0.192,0.283,1.76,0.127,1.95,0.274,0.119,0.033,0.154
TGTGTTG,-0.0101,-0.134,-0.298,-0.455,0.0766,-0.783,0.136,0.00796,-0.0553,-0.132
TGCGCTT,0.065,0.101,-0.042,-0.384,0.177,-0.000949,0.038,0.106,-0.0248,0.0284
ATAGTCG,0.0894,-0.139,-0.788,0.0674,0.0977,-0.887,0.228,-0.0896,0.0584,-0.0498
CACGCAG,-0.0612,-0.0436,-0.731,-0.557,-0.0491,-0.863,0.118,-0.0722,0.0463,-0.146
GCGGGCC,-0.016,0.0552,0.473,1.16,-0.0226,1.54,0.0755,-0.0266,-0.00355,0.162
ATAACCA,-0.042,0.0937,-0.471,-2.12,0.108,-0.446,-0.588,0.0674,0.093,0.0672
ACGAAAA,0.0321,0.148,-0.0319,0.17,0.0994,-0.552,0.196,0.0724,-0.0719,0.00439
TCGTTCC,-0.129,-0.237,0.189,0.0538,-0.00337,0.0733,-0.146,-0.0685,0.0614,-0.0479
TTGTCGG,0.14,0.0306,0.449,1.25,0.0194,1.57,0.205,0.233,-0.0225,0.0509
GGTCGGT,0.0409,-0.104,0.549,1.14,-0.021,1.69,0.0829,-0.193,0.021,0.0093
CGGCCCC,-0.00491,0.0663,0.299,0.507,0.0655,0.473,-0.0861,-0.025,-0.0935,0.112
CGCGCCC,-0.111,-0.0459,-0.103,-0.132,-0.144,-0.223,-0.00106,-0.123,-0.164,-0.156
ATACTAA,0.101,0.0309,-0.00547,-0.706,0.0919,-0.612,0.0742,0.157,-0.113,0.123
ATCCACC,-0.0286,-0.133,-0.06,-0.527,-0.163,-0.618,-0.243,-0.0746,-0.138,-0.142
GGAATGG,0.116,0.0691,0.406,0.91,0.0761,0.67,0.136,0.0655,0.0754,0.11

Sequence,uncleaved DNA left (log2) [1],uncleaved DNA left (log2) [2],uncleaved DNA left (log2) [3],uncleaved DNA left (log2) [4],uncleaved DNA left (log2) [5],uncleaved DNA left (log2) [6],uncleaved DNA left (log2) [7],uncleaved DNA left (log2) [8],uncleaved DNA left (log2) [9],uncleaved DNA left (log2) [10]
GACGTCC,-0.119,-0.00933,0.0621,0.407,-0.0581,0.427,-0.061,-0.129,-0.0422,-0.00165
ATGACTA,0.0132,0.0651,-0.0718,0.685,0.0992,0.475,-0.0188,-0.0706,0.0587,0.186
CCGGGAT,0.243,0.0127,0.447,1.61,0.0625,2.06,0.263,0.22,0.0789,0.0835
TCCCTGG,0.222,0.105,0.476,0.958,-0.0899,1,0.277,0.204,-0.0155,0.071
TAGTCGT,-0.233,-0.571,-0.781,-1.49,-0.313,-1.14,-3.55,-0.142,-0.0772,-0.264
CGCACTA,-0.0296,-0.0774,-0.00351,0.028,-0.0537,0.627,-0.135,-0.133,-0.189,-0.00632
AGGTAAG,0.04,-0.068,-0.57,-0.535,0.104,-0.932,0.121,0.015,0.0253,-0.129
TACCATG,-0.0411,-0.0901,-0.637,-0.969,-0.0489,-0.924,-0.291,-0.094,-0.0984,-0.204
TGACAAC,-0.0495,0.0837,0.412,0.114,-0.0463,1.24,0.181,0.0404,0.177,0.235
CCCCCTT,-0.0247,-0.109,0.0552,-1.63,0.0783,-0.383,-0.466,-0.0407,-0.0774,0.0289
AACGAGC,0.0621,0.0188,0.105,0.685,0.066,0.129,0.104,0.129,-0.0476,0.012
TCAACAG,-0.0321,0.00926,-0.694,-1.67,-0.0192,-1.1,0.106,0.0189,0.0325,-0.0792
AATAACC,-0.11,-0.0448,-0.598,-1.82,-0.0101,-0.867,-0.55,0.00417,-0.0445,0.0287
ATGGGCG,0.0763,0.0451,-0.533,0.89,0.126,-0.168,0.244,0.111,0.196,0.134
CGGTAAC,0.0269,-0.115,0.0775,-0.235,-0.0307,0.513,0.0592,0.0229,0.0303,0.00874
GTAACGC,0.00565,-0.0173,-0.145,0.206,-0.0748,0.112,0.0514,-0.11,-0.0375,-0.0566
GGTGTTG,-0.0984,-0.181,0.0423,0.27,0.00907,0.289,0.0733,-0.0128,-0.0536,-0.0326
TTAAAGC,0.0211,-0.0964,-0.199,-0.473,-0.0297,-1.06,0.155,-0.0427,-0.00641,-0.133
GGAACTT,0.104,0.17,0.887,2,-0.0242,2.26,0.172,-0.0115,0.0518,0.222
GGCCGGG,-0.103,-0.0439,0.71,1.59,0.0177,1.99,0.127,0.135,0.00955,0.018

Sequence,uncleaved DNA left (log2) [1],uncleaved DNA left (log2) [2],uncleaved DNA left (log2) [3],uncleaved DNA left (log2) [4],uncleaved DNA left (log2) [5],uncleaved DNA left (log2) [6],uncleaved DNA left (log2) [7],uncleaved DNA left (log2) [8],uncleaved DNA left (log2) [9],uncleaved DNA left (log2) [10]
TCAGTGG,0.0197,-0.154,-0.126,-0.0314,0.00516,-0.592,0.165,-0.0479,-0.0454,-0.0325
TTTAGTG,0.168,-0.0327,-0.432,-0.654,0.0792,-1.05,0.191,0.0671,0.00339,-0.0222
CGGAACA,-0.0257,0.017,0.369,0.45,0.0123,1.29,-0.0602,-0.027,-0.0944,0.0204
TTAGCTG,0.00593,-0.00116,0.32,1.33,-0.039,1.65,0.0726,-0.0294,-0.104,-0.02
CAGTTTC,-0.279,-0.165,-0.126,-0.435,-0.326,-0.594,-3.19,-0.102,-0.0608,-0.164
CAAACCG,-0.0517,0.00801,-0.864,-0.215,0.0314,-0.877,0.0964,0.0426,0.0905,-0.0479
TGTGGGG,0.0636,-0.0147,0.158,0.216,0.00801,-0.141,0.181,0.0574,-0.0524,-0.00565
CGCCCCG,-0.0349,0.0018,-0.566,-0.174,-0.00854,-0.651,0.0112,-0.0416,-0.132,-0.00153
TGTAGCC,0.091,0.0407,0.128,0.272,0.0894,-0.177,0.102,-0.0205,0.0184,0.131
CAGCGTT,-0.0261,0.0189,-0.281,-1.21,-0.0162,-0.697,-2.66,0.0579,0.0771,-0.0266
GATACGG,0.114,0.118,0.57,1.61,-0.0271,2.05,0.191,0.156,-0.00493,0.0983
AGGCCGT,0.107,0.104,0.349,0.431,0.11,-0.00723,0.0431,0.14,0.148,0.165
GAGTACA,0.0126,0.0104,0.46,0.0208,-0.0831,1.61,-2.41,0.0399,0.00607,0.0748
GGTTGCA,0.00267,0.00952,-0.0266,0.194,0.0342,-0.181,0.151,-0.00801,0.0643,-0.0177
ATAGTAT,0.0155,-0.0224,0.136,0.751,0.105,1.1,0.153,0.109,-0.0746,-0.0696
CAGAAAG,0.0911,0.0249,-0.754,-0.264,0.138,-1.02,0.173,0.126,0.094,0.0158
TATCGTC,0.257,0.0702,0.0667,-0.253,0.00905,-1.05,0.0614,-0.0109,0.0469,0.121
GTCTAAA,0.227,0.111,0.372,1.02,0.167,1.8,0.068,0.222,0.0968,0.224
